{"source": "ChEMBL document CHEMBL4888484", "about": "“Replenishing the malaria drug discovery pipeline: Screening and hit evaluation of the MMV Hit Generation Library 1 (HGL1) against asexual blood stage Plasmodium falciparum ,using a nano luciferase reporter read-out” (2022)", "note": "Out of some 150,000 compounds screened, about 540 (0.36%) showed an effect of 50% or more. The list shows a part of the results."}
{"tested_on": "Plasmodium falciparum", "assay": "Primary screen in NF54 nanoGlo assay, in single point, at 2uM, 72h; a lower Z score goes with more inhibition", "type": "functional, Erythrocyte", "conditions": "timepoint 72 hour", "units": {"% Inhibition": "%"}}
{"molecule": "Cc1cccc(-c2ccc(C(=O)NCc3nncn3C)c(=O)[nH]2)c1", "% Inhibition": 2, "Z score": -0.24}
{"molecule": "Cc1noc2ncnc(N3Cc4ccccc4[C@@H](O)C3)c12", "% Inhibition": -4, "Z score": 0.48}
{"molecule": "C[C@@H](C(=O)NC1CCCC1)N(C)Cc1ccc2c(c1)OCCO2", "% Inhibition": 1, "Z score": -0.15}
{"molecule": "Cc1cncc(NC(=O)C(=O)NCC2CCC(C)(C)CC2)c1", "% Inhibition": -12, "Z score": 1.21}
{"molecule": "CC[C@@H](CC#N)NC(=O)c1ccc(F)cc1NC(C)=O", "% Inhibition": -11, "Z score": 1.52}
{"molecule": "O=C(COCc1ccccc1Cl)N1CCC[C@H]1c1ccncc1", "% Inhibition": -4, "Z score": 0.49}
{"molecule": "CNc1nc(C)cc(C(=O)NC2CC3CC3C2)n1", "note": "(centres undefined)", "% Inhibition": 3, "Z score": -0.38}
{"molecule": "C[C@H]1OCC(=O)N(Cc2ccccc2)[C@@H]1c1nc(-c2nnc[nH]2)no1", "% Inhibition": -8, "Z score": 1.12}
{"molecule": "COC1CCC(N(C)C(=O)c2coc(C3CCOCC3)n2)CC1", "note": "(centres undefined)", "% Inhibition": -23, "Z score": 3.51}
{"molecule": "Cc1cccc(-n2ncnc2CNC(=O)N(C)C)n1", "% Inhibition": -9, "Z score": 1.1}
{"molecule": "COc1cc(OC)c(NC(=O)CN2C[C@H]3CCN(C)[C@H]3C2)cc1Cl", "% Inhibition": -2, "Z score": 0.38}
{"molecule": "COc1cc([C@H]2CC(=O)Nc3c2cnn3Cc2ccco2)c(OC)c2c1OCCO2", "% Inhibition": 9, "Z score": -1.07}
{"molecule": "CCc1nc(C)c(C(=O)NCc2ccc(Cl)s2)o1", "% Inhibition": -10, "Z score": 1.23}
{"molecule": "Cn1cc(Cl)cc1C(=O)N1CC2(CCC2)[C@H]1c1ccco1", "% Inhibition": -6, "Z score": 1.16}
{"molecule": "CCCOCC(=O)N1CCC(c2nnc(Cn3ccnc3C)n2C)CC1", "% Inhibition": 2, "Z score": -0.25}
{"molecule": "CC(=O)c1ccc(F)c(-c2cc(C)cc3c2O[C@@H](CNC(=O)Cn2nc(C)nc2C)C3)c1", "% Inhibition": 5, "Z score": -0.85}
{"molecule": "COCCN1C(=O)CC(CC(=O)N2CCN(C)C[C@@H]2C(C)C)(c2cccc(OC)c2)C1=O", "note": "(some centres undefined)", "% Inhibition": -4, "Z score": 0.7}
{"molecule": "O=C(CCc1c[nH]c2ccccc12)Nc1nc[nH]n1", "% Inhibition": -6, "Z score": 0.83}
{"molecule": "C=CCN=C(NCCNC(=O)C(C)C)NCc1ccccc1", "% Inhibition": 3, "Z score": -0.54}
{"molecule": "Cc1ccc(OCC2c3ccsc3CCN2C(=O)CN(CC2CCCO2)C(=O)c2ccccc2)c(C)c1", "note": "(centres undefined)", "% Inhibition": -9, "Z score": 1.1}
{"molecule": "COc1ccccc1-n1c(=O)n(Cc2ccccc2)c(=O)c2c1ncn2Cc1cccc(F)c1", "% Inhibition": 0, "Z score": 0.02}
{"molecule": "O=C(Cn1ncccc1=O)N1CCN(c2ccc(-c3ccco3)nn2)CC1", "% Inhibition": -16, "Z score": 2.41}
{"molecule": "COc1ccc(N2CCN(C(=O)C3OC(C)CC3C)CC2)nc1", "note": "(centres undefined)", "% Inhibition": -8, "Z score": 1.31}
{"molecule": "Cc1nc(C(=O)N(C)C)ccc1C(=O)O[C@@H](C)c1cccc(F)c1", "% Inhibition": -6, "Z score": 0.83}
{"molecule": "Cc1c(C)n(Cc2ccccc2)c2ccc(C(=O)NC3CCN(Cc4ccccc4)CC3)cc12", "% Inhibition": 4, "Z score": -0.54}
{"molecule": "Cc1cc(CNC(=O)c2ccn(C(F)F)n2)no1", "% Inhibition": -8, "Z score": 1.43}
{"molecule": "COCCc1ccc(OS(=O)(=O)c2ccc3c(c2)CCC(=O)N3)cc1", "% Inhibition": -15, "Z score": 2.79}
{"molecule": "CS(=O)(=O)c1cnc2nc3ccccc3n2c1-c1ccccc1", "% Inhibition": -16, "Z score": 2.14}
{"molecule": "CCOC(=O)C(NC(=O)c1cnn(C)c1)C(=O)OCC", "% Inhibition": -6, "Z score": 0.89}
{"molecule": "Cc1ccsc1C(=O)N[C@@H](CCO)C(C)(C)C", "% Inhibition": -6, "Z score": 1.1}
{"molecule": "CCn1ccc2oc(C)c(C(=O)NC3CCN(Cc4ccccc4)CC3)c2c1=O", "% Inhibition": -4, "Z score": 0.6}
{"molecule": "O=C(Nc1nc(-c2cccc3ccccc23)cs1)c1cccc(F)c1", "% Inhibition": -7, "Z score": 1.24}
{"molecule": "Cn1ncnc1C1(O)CCN(C(=O)OCC2CCCCC2)CC1", "% Inhibition": -6, "Z score": 0.98}
{"molecule": "CN1CCOC(CNCC(O)c2ccc(Br)cc2)C1", "note": "(centres undefined)", "% Inhibition": -5, "Z score": 1.06}
{"molecule": "COCc1sccc1C(=O)N[C@@](C)(Cc1ccccc1)C1CC1", "% Inhibition": -20, "Z score": 2.87}
{"molecule": "Cc1nn(C2c3ccccc3Oc3ccccc32)c(=S)s1", "% Inhibition": 0, "Z score": 0.09}
{"molecule": "CN=C(NCc1ccnn1C)N1CCc2ccccc2C1", "% Inhibition": 3, "Z score": -0.37}
{"molecule": "Cc1cc(NS(=O)(=O)c2cccs2)n(-c2ccncc2)n1", "% Inhibition": 37, "Z score": -4.23}
{"molecule": "Cc1cc(C(=O)NC[C@]2(O)CCCc3occc32)no1", "% Inhibition": 14, "Z score": -1.79}
{"molecule": "O=C(NCCN1CC2CCC(C1)O2)c1nnc(-c2ccc(F)cn2)o1", "% Inhibition": -3, "Z score": 0.32}
{"molecule": "CC(C)(O)CNC(=O)Cc1ccc(F)cc1", "% Inhibition": -7, "Z score": 0.86}
{"molecule": "CCN(CCN1CCCC1)Cc1cccc2ncccc12", "% Inhibition": 12, "Z score": -2.2}
